Test results as given in the antibiotic and cytotoxicity screens of Wong et al. (2023).
Some of the results follow.

Legend:
HSkMC = human skeletal muscle cells; assay: cytotoxicity call (relative viability < 0.9); conditions: 10 µM
HepG2 = assay: cytotoxicity call (relative viability < 0.9); conditions: 10 µM
S. aureus RN4220 = assay: growth inhibition call (relative growth <= 0.2); conditions: 50 µM

| Structure (SMILES) | cytotoxicity call (HSkMC) | cytotoxicity call (HepG2) | growth inhibition call (S. aureus RN4220) |
| --- | --- | --- | --- |
| COc1ccc2c3c(n(c2c1)C)[C@@H](CO)N(C[C@]13CN(C1)S(=O)(=O)C)C(=O)CN(C)C | inactive | inactive | inactive |
| C[C@H]1CN([C@@H](C)CO)C(=O)Cc2cc(NC(=O)Nc3cccc4ccccc34)ccc2O[C@@H]1CN(C)C(=O)Nc1ccc(C(F)(F)F)cc1 | inactive | inactive | inactive |
| CC[C@H](C#CCN1CCOCC1)OC(C)=O | inactive | inactive | inactive |
| C#Cc1ccc([C@H]2C=C(C(=O)N3CCN(Cc4ccc5c(c4)OCO5)CC3)O[C@@H](OCC)[C@@H]2CCCO)cc1 | inactive | inactive | inactive |
| C[C@@H]1CN([C@@H](C)CO)C(=O)c2c(c3ccccc3n2C)-c2ccccc2CO[C@H]1CN(C)S(=O)(=O)c1ccc(C(F)(F)F)cc1 | inactive | inactive | inactive |
| COc1ccc(CN(C)C[C@H]2OCCCC[C@@H](C)Oc3ccc(NC(=O)NC4CCCCC4)cc3C(=O)N([C@@H](C)CO)C[C@@H]2C)cc1 | inactive | inactive | inactive |
| NNC(=O)c1ccncc1.Nc1ccc(C(=O)O)c(O)c1 | inactive | active | inactive |
| CN(C)C(=O)C[C@H]1C=C[C@H](NC(=O)C2CC2)[C@H](CO)O1 | inactive | inactive | inactive |
| O=C1N[C@H](c2ccccc2)COCc2cn(nn2)CC[C@@H](Cc2ccc(C(F)(F)F)cc2)C(=O)N[C@H](c2ccccc2)COCc2cn(nn2)CC[C@H]1Cc1ccc(C(F)(F)F)cc1 | inactive | inactive | inactive |
| CN(C)CC(=O)N1CC(=O)N2[C@H](C1)[C@@H](c1ccc(C#Cc3cccnc3)cc1)[C@@H]2CO | inactive | inactive | inactive |
| Clc1ccc2nc(Cl)cc(-c3ccccc3)c2c1 | inactive | inactive | inactive |
| CC(C)NC(=O)N(C)C[C@H]1Oc2ncc(-c3ccc(C(=O)N(C)C)cc3)cc2C(=O)N([C@@H](C)CO)C[C@@H]1C | inactive | inactive | inactive |
| CN(C)C(=O)C[C@@H]1CC[C@@H](NC(=O)C2CCOCC2)[C@H](CO)O1 | inactive | inactive | inactive |
| Cc1noc(C)c1NC(=O)N(C)C[C@@H]1Oc2ccc(NC(=O)NC(C)C)cc2C(=O)N([C@@H](C)CO)C[C@H]1C | inactive | inactive | inactive |
| C[C@H](CO)N1C[C@H](C)[C@@H](CN(C)C(=O)Nc2ccnc(N3CCOCC3)c2)OCc2cnnn2CCCC1=O | inactive | inactive | inactive |
| C[C@H](CO)N1C[C@H](C)[C@@H](CN(C)Cc2ccc(C(=O)Nc3ccccc3N)cc2)Oc2ccc(NC(=O)CCN3CCOCC3)cc2CC1=O | inactive | inactive | inactive |
| CN1CCN(C(=O)C[C@H]2CC[C@@H]3[C@H](COC[C@@H](O)CN3C(=O)Nc3cc(Cl)cc(Cl)c3)O2)CC1 | inactive | inactive | inactive |
| Cc1ccc(S(=O)(=O)Nc2cccc3c2O[C@H](CN(C)S(=O)(=O)c2ccc(F)cc2)[C@@H](C)CN([C@@H](C)CO)C3=O)cc1 | inactive | inactive | inactive |
| C[C@@H]1CCCCO[C@H](CN(C)C(=O)c2ccccc2)[C@H](C)CN([C@H](C)CO)C(=O)c2cc(NC(=O)C3CCCCC3)ccc2O1 | inactive | inactive | inactive |
| O=C(C=Cc1ccc(O)cc1)c1ccccc1 | inactive | active | inactive |
| C[C@H](CO)N1C[C@H](C)[C@@H](CN(C)Cc2ccc(F)cc2)Oc2cc(C#CC3CC3)ccc2S1(=O)=O | inactive | inactive | inactive |
| COc1ccc(NC(=O)Nc2ccc3c(c2)CC(=O)N([C@H](C)CO)C[C@H](C)[C@@H](CN(C)S(=O)(=O)c2c(C)noc2C)O3)cc1 | inactive | inactive | inactive |
| CO[C@@H]1CN(C)C(=O)c2cc(NC(=O)C3CC3)ccc2OC[C@@H](C)N(C(=O)Cc2ccccn2)C[C@@H]1C | inactive | inactive | inactive |
| C[C@H](CO)N1C[C@H](C)[C@H](CN(C)C(=O)c2ccc3c(c2)OCO3)Oc2ncc(C3=CCCC3)cc2C1=O | inactive | inactive | inactive |
| OCCN1CCCNCC1 | inactive | inactive | inactive |
| Cc1ccc(S(=O)(=O)Nc2ccc3c(c2)CC(=O)N([C@@H](C)CO)C[C@@H](C)[C@@H](CN(C)Cc2ccc(C(F)(F)F)cc2)O3)cc1 | active | active | inactive |
| C[C@@H]1CN([C@@H](C)CO)C(=O)c2cccc(NC(=O)c3cnccn3)c2O[C@H]1CN(C)S(=O)(=O)c1cccs1 | inactive | inactive | inactive |
| C[C@@H]1CN([C@@H](C)CO)C(=O)c2cc(C#CC3(O)CCCC3)cnc2O[C@H]1CN(C)C(=O)C1CCOCC1 | inactive | inactive | inactive |
| CO[C@@]1(CNC(=O)c2ccno2)CCSC1 | inactive | inactive | inactive |
